Data reported in PubChem BioAssay AID1963576 (National Center for Advancing Translational Sciences (NCATS), 2024).
Screen size: about 46,000 compounds; about 60 (0.1%) were called active. Not shown: some 3% with an inconclusive outcome. Calls follow the shape of the dose curve; as a rule, active = well fitted inhibition curve with a large enough effect; inconclusive = small, poorly fitted or top-dose-only effect; inactive = no such curve, though single readings can be large or run the other way. Some of the results follow.

test: Primary qHTS assay for Inhibitors of ovarian cancer metastasis using an organotypic tumor microenvironment (TME) model.; also: nearly all actives have a fitted effect of over 65% in size;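 as to activity change, negative = inhibition: plate controls were DMSO wells for no effect and tomatine positive control wells for full effect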; conditions: SKOV3ip1-GFP adhesion/invasion on 3D omental model, fluorescence; series mostly up to 45.8 µM; activity change, negative = inhibition: at the top concentration
How it was run: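 Adhesion/invasion was scored as fixed GFP-labeled SKOV3ip1 cell counts (488/509 nm), normalized to DMSO and tomatine controls. Cancer cells in serum-free medium, with four compound doses (0.36-46 umol/L), sat 2 hr at RT then 16 hr at 37 C on a 48 hr fibroblast/mesothelial/ECM culture.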

outcome, inactive:
CCc1nn2c(=O)cc(COC(=O)Cc3ccccc3)nc2s1
COc1ccc(NC(=O)CSC2=Nc3ccccc3C3=NC(CC(=O)NCCc4ccccc4)C(=O)N23)cc1 (stereo unspecified)
Cc1ccc(S(=O)(=O)c2cn(Cc3ccccc3)c3cc(N4CCCCC4)c(F)cc3c2=O)cc1
COc1ccc(-c2noc(-c3ccc(N4CCOCC4)c([N+](=O)[O-])c3)n2)cc1
CCOC(=O)c1c(C)sc(-c2c(-c3ccccc3)[nH]c3[nH]c(=O)[nH]c(=O)c23)c1O
CCC(=O)N1c2ccc(S(=O)(=O)CCC(=O)NCc3ccccc3OC)cc2CC1C (stereo unspecified)
CCOc1ccc(NC(=O)Cn2c(=O)n(Cc3ccc4c(c3)OCO4)c(=O)c3ccc(C(=O)NC4CCCCC4)cc32)cc1
Cc1ccc(CNS(=O)(=O)c2ccc(C(=O)N(C)C)s2)cc1
Cc1ccc(CN(C(=O)COc2ccccc2Cl)c2ccccn2)o1
CC1CCCCN1Cc1c(O)ccc2c(=O)c(-c3ccccc3Cl)c(C(F)(F)F)oc12 (stereo unspecified)
COCCSc1nc2c([nH]c3ccccc32)c(=O)n1-c1ccc(OC)c(OC)c1
COC(=O)c1nnn(CC(=O)NC(=O)Nc2ccc(F)cc2)c1C(=O)OC
O=C(Cn1nnnc1-c1ccccc1F)Nc1ccc(OC(F)(F)F)cc1
O=C(CSc1nccn1Cc1ccc(F)cc1)Nc1nc2ccccc2s1
COc1cccc(C(=O)Nc2ccccc2C(=O)OCc2cc(=O)n3c4c(sc3n2)CCCC4)c1
COc1ccc(CNC(=O)CN(C)S(=O)(=O)c2ccc3nc(C)sc3c2)cc1
CCOC(=O)c1ccc(NC(=O)Cn2c(=O)cc(C)c3c(C)nn(-c4ccc(CC)cc4)c32)cc1
N#Cc1ccc(-c2cccs2)nc1SCc1ccc(Br)cc1
Cc1cc2c(cc1S(=O)(=O)Nc1cccc(C#N)c1)OCC(=O)N2

Activity change, negative = inhibition, inactive:
O=C(O)C1=NC(C(=O)O)CC(C=CN2c3cc(O)c(OC4OC(CO)C(O)C(O)C4O)cc3CC2C(=O)O)=C1 (stereo unspecified) -15.4%
O=C(Cc1ccccc1)Nc1sc2c(c1C(=O)Nc1cccc(Cl)c1)CCCCC2 16.5%
CC(C)OCCCn1c(=O)c2ccccc2n2c(-c3ccccc3)nnc12 3.16%
CC(C)(C)C1CCc2c(sc(NC(=O)c3cccc(Cl)c3)c2C(=O)NCc2ccco2)C1 (stereo unspecified) -8.65%
COc1cc(OC)c(NC(=O)CCS(=O)(=O)c2ccc3c(c2)oc(=O)n3C)cc1Cl 7.33%
O=C(NCc1ccco1)c1ccc(Cn2c(SCc3ccccc3)nc3cccnc32)cc1 -2.86%
CC(C)CCOc1ccc(Cn2c(=O)oc3ccccc32)cc1 -4.45%
COc1ccc(NCc2cccn2-c2nnc(N3CCCCCC3)s2)cc1 -26%
CCc1ccc(S(=O)(=O)NCc2ccc3c(c2)CCN3C(=O)c2ccc(C)cc2)cc1 -6.86%
CC1=C(C(=O)Nc2ccccc2C)C(c2cccs2)n2nc(SCc3ccccc3)nc2N1 (stereo unspecified) 5.36%
CN(Cc1ccccc1)C(=O)CSc1nnc(-c2cccc(Cl)c2)o1 -1.39%
CCc1ccc(CNC(=O)C2COc3ccc(OC)cc3C2)cc1 (stereo unspecified) 2.42%
Cc1scc(CN2CCN(c3ccccc3F)CC2)c1C 9.54%
CN(C(=O)CC(=O)Nc1ccc2nc3n(c(=O)c2c1)CCCCC3)c1ccccc1F -0.82%
CCc1ccc(-n2nc(CO)c(C(=O)NCCOC)n2)cc1 -2.57%
O=C(Cn1ncc2c(Cl)cccc21)NCc1cccc(Cl)c1 6.76%
COc1ccc(OC)c(CNC(=O)Nc2cn(CC(C)C)c(=O)c3ccccc23)c1 11.4%
CCn1cc(S(=O)(=O)c2cc(C)cc(C)c2)c(=O)c2cc(F)c(N3CCCCC3)cc21 8.08%
CC(C)(C)C1CCc2c(sc(NC(=O)C3c4ccccc4Oc4ccccc43)c2C(N)=O)C1 (stereo unspecified) -3.26%
Cc1cccc(NC(=O)Cn2c(=O)n(Cc3ccc4c(c3)OCO4)c(=O)c3oc4ccccc4c32)c1C 2.12%
CCCCn1c(CNC(=O)C23CC4CC(CC(C4)C2)C3)nnc1SCC(=O)Nc1ccc(C)cc1 6.72%
O=C(Nc1ccc(S(=O)(=O)N2CCC(c3nc4ccccc4s3)CC2)cc1)c1ccccc1 -5.87%
CC(=O)N1CCc2cc(Br)cc(S(=O)(=O)N3CCC(C(=O)Nc4cccc(C)c4C)CC3)c21 10.2%
Cc1ccc(CNC(=O)Nc2cc(C(=O)NCc3cccc(F)c3)ccc2N2CCCC2)cc1 -13.5%
Cc1ccc(C2CC(=O)Nc3cc4c(cc32)OCCO4)cc1Br (stereo unspecified) 9.19%
CCn1c(=O)c2c(nc3n2CCN3c2ccc(OC)cc2)n(C)c1=O -6.1%
Cc1ccc(-c2noc(CCC(=O)N(C)c3ccccc3F)n2)cc1 4.61%
COCCNC(=O)Cn1ccc2cc(S(=O)(=O)N3CCCCCC3)ccc21 -8.3%
Fc1ccccc1-c1nc(N2CCN(c3cccc(Cl)c3)CC2)c2ccccc2n1 -4.69%
CCOc1ccc(CCNC(=O)c2cc(=O)[nH]c3ccc(S(=O)(=O)N4CCCCC4C)cc23)cc1OCC (stereo unspecified) -4.16%
CCOC(=O)c1c(C)n(-c2ccc(OC)cc2)c2ccc(OC(=O)COc3ccccc3)cc12 -3.17%
COc1ccc(CNC(=O)CCc2c(C)nc3c(c(C)nn3-c3ccccc3)c2C)cc1 5.82%
CCN(Cc1ccccc1)C(=O)C1CCN(S(=O)(=O)c2ccc3c(c2)CCCN3C(C)=O)CC1 -8.54%
CC(C)c1nnc(N2C(=O)c3oc4ccccc4c(=O)c3C2c2ccccc2F)s1 (stereo unspecified) 2.27%
COc1cc(NC(=O)C2=CC(c3ccc(F)cc3)=NS(=O)(=O)N2C)cc(OC)c1OC 17.1%
CCc1ccc(CNC(=O)CCc2c(C)nn(-c3ccc(N4CCCC4)nn3)c2C)cc1 6.16%
c1ccc([C@H]2CN3CCSC3=N2)cc1 -11.2%
Cc1coc2c(C)c3oc(=O)c(CCC(=O)NCCc4ccccc4F)c(C)c3cc12 -9.63%
CC(C)N(C(=O)CSc1cn(CC(=O)N2CCCCCC2)c2ccccc12)C(C)C -3.31%
COc1ccc(-n2nc(C(=O)N3CCCCC3C)c3c4ccccc4n(C)c3c2=O)cc1Cl (stereo unspecified) -1.35%
O=C(Cn1ncc2c3ccccc3n(Cc3ccccc3F)c2c1=O)NCc1ccccc1Cl -5.34%
Cc1cccc(CC(=O)N2CC(=O)Nc3ccc(Br)cc3C2c2ccc(F)cc2)c1 (stereo unspecified) -9.68%
